No constants are given. Whether binding was seen depends on the method and setting. For some assays here: In cells and extracts the contact can be indirect. Some results given as binding are weak or reduced against the parent protein; the word gives no strength. For some assays here: Where a sequence is shown, tags or fusion partners need not be part of it. Values belong to the substance of their own block, whether it stands above or below them.
Experiments:
[1] = target: T1, glutaminyl tRNA synthetase (QARS), Flag-tagged (human) (UniProt P47897); test: co-IP; co-immunoprecipitation of QARS and FBW7 (Fig. 2B); whether ectopic or endogenous proteins were used is not told
T1 sequence: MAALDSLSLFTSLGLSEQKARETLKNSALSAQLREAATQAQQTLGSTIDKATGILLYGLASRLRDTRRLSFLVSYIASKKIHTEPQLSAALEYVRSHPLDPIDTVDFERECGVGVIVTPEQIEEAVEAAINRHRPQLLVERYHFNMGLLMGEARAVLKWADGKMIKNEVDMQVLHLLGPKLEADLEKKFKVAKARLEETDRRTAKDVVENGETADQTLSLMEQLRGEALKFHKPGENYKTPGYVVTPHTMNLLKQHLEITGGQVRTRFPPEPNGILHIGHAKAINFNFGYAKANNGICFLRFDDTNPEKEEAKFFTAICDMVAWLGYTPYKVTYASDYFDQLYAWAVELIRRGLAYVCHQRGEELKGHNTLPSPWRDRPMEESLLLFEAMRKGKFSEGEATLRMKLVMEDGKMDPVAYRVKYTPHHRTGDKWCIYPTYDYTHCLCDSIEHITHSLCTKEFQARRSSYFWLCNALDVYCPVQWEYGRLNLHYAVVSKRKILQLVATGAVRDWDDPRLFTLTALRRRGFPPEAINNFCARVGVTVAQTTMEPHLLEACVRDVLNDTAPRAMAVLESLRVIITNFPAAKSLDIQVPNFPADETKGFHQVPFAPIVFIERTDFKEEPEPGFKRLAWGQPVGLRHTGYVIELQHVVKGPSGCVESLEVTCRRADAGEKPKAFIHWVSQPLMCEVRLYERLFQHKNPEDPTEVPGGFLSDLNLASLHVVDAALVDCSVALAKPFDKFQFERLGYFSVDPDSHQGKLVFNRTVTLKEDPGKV

Amino acid sequences for entries named in this document (tags omitted). A change or cut given only in a name is not applied to a line headed by its entry.
UniProt Q969H0: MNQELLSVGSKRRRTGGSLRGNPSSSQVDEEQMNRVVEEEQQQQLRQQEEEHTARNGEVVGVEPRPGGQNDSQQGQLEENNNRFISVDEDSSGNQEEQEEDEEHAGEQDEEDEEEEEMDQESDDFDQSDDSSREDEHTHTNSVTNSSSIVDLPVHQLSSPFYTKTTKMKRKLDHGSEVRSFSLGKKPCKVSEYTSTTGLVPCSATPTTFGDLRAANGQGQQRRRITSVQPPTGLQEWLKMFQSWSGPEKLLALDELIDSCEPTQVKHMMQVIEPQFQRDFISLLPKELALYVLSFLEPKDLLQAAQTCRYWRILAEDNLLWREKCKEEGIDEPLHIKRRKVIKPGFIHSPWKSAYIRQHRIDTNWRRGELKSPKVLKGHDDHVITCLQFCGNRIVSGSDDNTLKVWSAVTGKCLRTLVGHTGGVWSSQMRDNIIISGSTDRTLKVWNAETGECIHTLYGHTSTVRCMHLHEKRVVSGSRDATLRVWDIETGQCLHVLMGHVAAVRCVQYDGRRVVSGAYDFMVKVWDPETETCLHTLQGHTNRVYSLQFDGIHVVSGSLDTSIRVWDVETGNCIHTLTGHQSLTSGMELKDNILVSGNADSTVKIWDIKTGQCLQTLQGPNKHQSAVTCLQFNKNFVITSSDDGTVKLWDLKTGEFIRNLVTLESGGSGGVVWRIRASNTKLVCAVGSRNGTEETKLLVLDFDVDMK
UniProt P01106: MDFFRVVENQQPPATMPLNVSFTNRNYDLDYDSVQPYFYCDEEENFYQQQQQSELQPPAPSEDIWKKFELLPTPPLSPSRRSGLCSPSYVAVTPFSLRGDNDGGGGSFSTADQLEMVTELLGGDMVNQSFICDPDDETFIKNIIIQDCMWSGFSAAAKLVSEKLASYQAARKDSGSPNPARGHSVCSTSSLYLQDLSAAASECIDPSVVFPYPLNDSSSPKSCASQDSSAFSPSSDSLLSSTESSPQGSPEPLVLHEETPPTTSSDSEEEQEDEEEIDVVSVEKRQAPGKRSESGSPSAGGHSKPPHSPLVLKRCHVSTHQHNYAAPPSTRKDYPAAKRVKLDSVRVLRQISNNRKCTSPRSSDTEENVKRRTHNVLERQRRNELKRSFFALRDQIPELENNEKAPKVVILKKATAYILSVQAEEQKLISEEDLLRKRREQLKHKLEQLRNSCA

[2] = target: F-box and WD repeat domain-containing 7 (FBW7), in HCT116+/+ cells (human (endogenous in HCT116)) (UniProt Q969H0); test: co-IP; lysates of HCT116+/+, K604Q-KI and K604R-KI cells; increasing glutamine doses, 0 or 4 mmol/L glutamine, with or without QARS overexpression; immunoblot
[3] = target: FBW7 K604R, knock-in in the HCT116+/+ genome (K604R-KI cells) (human (endogenous in HCT116)) (UniProt Q969H0); test: as above
[4] = target: T1, glutaminyl tRNA synthetase (QARS), Flag-tagged (human); test: co-IP; ectopic co-expression in HCT116+/+ cells; lysis buffer 50 mmol/L Tris-HCl pH 7.5, 150 mmol/L NaCl, 0.5% Nonidet P-40; antibody-conjugated beads, 4°C, 4 h; immunoblot
[5] = target: FBW7 wild type, ectopically expressed (recombinant FBW7) (human) (UniProt Q969H0); test: pull-down; in vitro: Flag- and HA-tagged proteins purified from transfected HCT116+/+ cells by immunoprecipitation; HA-tagged protein eluted with HA peptide and put on Flag beads; immunoblot; both purified

binding [1]: binds
Substance: FBW7 wild type, ectopically expressed (recombinant FBW7) (from UniProt Q969H0 1-707)

binding [2]: binds | binding [3]: binds
Substance: c-Myc in the co-immunoprecipitations with FBW7 from HCT116+/+ and knock-in cells (from UniProt P01106 1-454)

binding [4]: no binding | binding [5]: binds
Substance: c-Myc, ectopically expressed, tagged (from UniProt P01106 1-454)
